# The whole screen tested about 360,000 compounds, of which about 7,500 (2.1%) were called active. This list was built around the results that the source calls inconclusive (neither active nor inactive); the mix of calls is not that of the screen. The call rests on the fitted dose curve; in most records, active means well fitted cell-killing curve with a large enough effect; inconclusive means small, poorly fitted or top-dose-only effect, or effect the other way, or another doubt; inactive means no such curve, though single readings can be large or run the other way. Potencies of inconclusive entries are left out as doubtful fits.
# Experiment: qHTS for induction of synthetic lethality in tumor cells producing 2HG: qHTS for the HT-1080-IDH1KD cell line;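 on activity, negative = toxicity: 0% = DMSO wells and -100% = cell-free medium wells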
# Details: HT-1080 IDH1 knockdown viability, ATP luminescence, 48 h; activity, negative = toxicity: at 46.1 µM (top of the series) unless noted
# Summary of the method: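 In this qHTS, HT-1080 cells depleted of IDH1 are exposed for 48 h at 37 °C to compound titrations. Toxicity is scored from CellTiter-Glo luminescence, with DMSO as full viability and medium alone as none.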
# Potency means the concentration at half of the fitted maximal effect; tags describe the fitted curve by direction and shape.
Compound,Potency,"activity, negative = toxicity"
CCOC(=O)c1cccc(N/C=C/C(=O)c2ccc(OC)c(OC)c2)c1,"inconclusive [cytotoxic, single point]",
Cc1ccc(C(=O)N2CC(C)CC(C)C2)cc1NC1=NC2CS(=O)(=O)CC2S1 (configuration not stated),,inactive: 3.63%
N#CC1=C(SCC(=O)c2ccc(Cl)cc2)NC2=C(C(=O)CCC2)C1c1ccco1 (configuration not stated),active: 18.4 µM,
N#C/C(=C/c1ccc(N2CCCCC2)o1)C(=O)NCCc1c[nH]c2ccccc12,"inconclusive [cytotoxic, single point]",
Fc1ccccc1NC(=S)N/N=C/c1ccccc1Br,active: 7.08 µM,
OC(CNCc1ccco1)Cn1c2ccc(Br)cc2c2cc(Br)ccc21 (configuration not stated),"inconclusive [cytotoxic, full curve]",
Cc1ccc(C)c(S(=O)(=O)N2CCN(Cc3ccc(O)c4ncccc34)CC2)c1,"inconclusive [cytotoxic, partial curve]",
CC[C@]12c3[nH]c4ccc(Cl)cc4c3CCN1C(=O)[C@@H](CC(=O)NCC13CC4CC(CC(C4)C1)C3)C[C@@H]2C(=O)N1CCN(C(=O)c2ccco2)CC1,active: 18.4 µM,
Cc1nnc(-c2ccccc2)c(=O)n1/N=C/c1c(O)ccc2ccccc12,"inconclusive [cytotoxic, full curve]",
O=[N+]([O-])c1cc([N+](=O)[O-])c(Oc2ccccc2F)cc1NN1CCCCC1,,inactive: 6.2%
CCOc1ccc(CCN2C(=S)N([C@@H](Cc3ccc(O)cc3)CN3CCC[C@@H]3CN3C(=S)NC[C@@H]3CC(C)C)C[C@@H]2Cc2ccc(O)cc2)cc1,active: 20.6 µM,
COc1cc(/C=C/C(=O)c2ccc(NS(=O)(=O)c3ccc(C)cc3)cc2)ccc1OC(F)F,"inconclusive [cytotoxic, single point]",
C[C@@H]1CN([C@H](C)CO)C(=O)c2cccc(NC(=O)NC3CCCCC3)c2O[C@@H]1CN(C)C(=O)Nc1ccc(C(F)(F)F)cc1,"inconclusive [cytotoxic, single point]",
COc1ccc(C2Nc3ccccc3C(=O)N2c2ccccc2)cc1CSc1ccccn1 (configuration not stated),,inactive: -20.5%
C/C(=N\NC(=O)c1ccccc1)c1c(C)[nH]n(-c2ccccc2)c1=O,"inconclusive [cytotoxic, partial curve]",
COc1cc(C2Sc3ccccc3NC3=C2C(=O)OC3)cc(OC)c1OC (configuration not stated),"inconclusive [cytotoxic, single point]",
CCNCc1cc(Cl)c(OCc2ccccc2)c(OCC)c1,"inconclusive [cytotoxic, single point]",
Cc1nn(Cc2ccc(C(=O)NC(C)(C)C)o2)c(C)c1Br,,inactive: -14.4%
CCOc1ccc(S(=O)(=O)Nc2cccc(-c3ccc(N4CCCCCC4)nn3)c2)cc1,,inactive: -0.0109%
Cc1ccc(S(=O)(=O)NCC(=O)N/N=C/c2ccccc2O)cc1,"inconclusive [cytotoxic, partial curve]",
C[C@]12CCC(=O)C=C1CC[C@@H]1[C@@H]2[C@@H](O)C[C@@]2(C)[C@H]1CC[C@]2(O)C(=O)CO,,inconclusive: 25.2%
CCOc1ccc(C(C)=O)cc1N1C(=O)C2C3C=CC(O3)C2C1=O (configuration not stated),"inconclusive [cytotoxic, single point]",
O=C(CCn1c(=O)[nH]c2ccsc2c1=O)N1CCN(c2cccc(Cl)c2)CC1,"inconclusive [cytotoxic, single point]",
NNc1nc(-c2ccccc2)cc(-c2ccccc2)n1,"inconclusive [cytotoxic, single point]",

Compound,Potency,"activity, negative = toxicity"
Cc1ccc2c(c1)C(=O)C(=O)N2Cc1ccc(Br)cc1,active: 23.1 µM,
Cc1cccc2sc(N(CCN3CCOCC3)C(=O)CCS(=O)(=O)c3ccccc3)nc12,,inactive: -10.1%
COc1ccc2c(c1)C(=O)CC(O)(C(F)F)O2 (configuration not stated),,inactive: 18.7%
COc1ccc(CNC(=O)C/C(C)=N/NC(=O)COc2ccc(C)cc2Br)cc1,active: 18.4 µM,
Cc1cc(C(=O)Nc2ccc3c(c2)CCC3)ccc1[N+](=O)[O-],,inactive: 5.49%
CN(C(=O)c1ccc(-c2ccccc2)cc1)C1CCCCC1,"inconclusive [cytotoxic, partial curve]",
O=C(COc1ccc(S(=O)(=O)N2CCOCC2)cc1)NCc1ccccn1,,inactive: -4.6%
Fc1ccc(-n2[nH]nnc2=S)cc1N1CCCC1,"inconclusive [rising, partial curve]",
Cc1ccc(Cl)cc1-c1cc(C(=O)NCC2CCCCC2)[nH]n1,"inconclusive [cytotoxic, single point]",
O=C1OC(c2cccc([N+](=O)[O-])c2)C2(CCCC2)C(=O)C12CCCCC2 (configuration not stated),active: 16.4 µM,
CN(C(=O)COC(=O)c1nc(Cl)c(Cl)c(Cl)c1Cl)C1CCS(=O)(=O)C1 (configuration not stated),active: 5.8 µM,
N=c1c2c(n(Cc3ccc(F)cc3)c3c1CCC3)CCCC2,"inconclusive [cytotoxic, partial curve]",
Cc1cc(C)cc(OCC(O)CN2CCC(CN3C(=O)c4cccc5cccc(c45)C3=O)CC2)c1 (configuration not stated),active: 18.4 µM,
O=C(Nc1ccc(Br)cc1)C1C2C=CC3(O2)C1C(=O)N(CCN1CCOCC1)C3C(=O)NC1CCCCC1 (configuration not stated),,inactive: -7.39%
COc1ccc2[nH]c3c(N4CCC(O)(c5cccc(C(F)(F)F)c5)CC4)ncnc3c2c1,active: 20.6 µM,
CC(C)NC(=O)Cn1c(SCC(=O)N2CCCc3ccccc32)nc2ccccc21,,inconclusive: 36.3%
COc1ccc(-c2csc(Nc3ccccn3)n2)cc1OC,"inconclusive [cytotoxic, single point]",
Cc1ccc(-c2cnc(C(O)c3cccc(Cl)c3)[nH]2)cc1 (configuration not stated),"inconclusive [cytotoxic, single point]",
CN(C)S(=O)(=O)c1ccc2oc(SCC(N)=O)nc2c1,,inactive: 1.5%
Cc1c(Cl)cccc1NC(=O)CCN1C(=O)NC(C)(C)C1=O,,inactive: -7.87%
Cc1cc(C)c(S(=O)(=O)Nc2cc(SCC(=O)O)c(O)c3ccccc23)cc1C,active: 20.6 µM,
CN(C)/C=N/NC(=O)c1ccccc1,"inconclusive [rising, single point]",
CCCCC[C@H](C)N1C[C@H](COCc2ccccc2)Oc2cc(N3CCC[C@H]3CO)ccc2S1(=O)=O,"inconclusive [cytotoxic, single point]",
CSCCC(NC(=O)C1CCC(C)CC1)C(=O)NCCN1CCC(C)CC1 (configuration not stated),,inactive: 2.81%

Compound,Potency,"activity, negative = toxicity"
Cc1ccccc1/C=N/NC(=O)c1sccc1C,,inactive: -17.3%
Cc1cccc(N2CCN(c3ccc4cc(S(=O)(=O)N5CCCCC5)ccc4n3)CC2)c1C,,inactive: 15.4%
CCOc1cccc2cc(C(=O)NC(C)c3ccccc3)c(=N)oc12 (configuration not stated),,inactive: 1.2%
CCCCC1C(=O)CC[C@H]2[C@@H]1CC(=O)[C@@H]2C/C=C\CCCC(=O)O (some centres not stated),"inconclusive [cytotoxic, single point]",
O=C1N[C@@H](Cc2ccccc2)COC(=O)[C@H](Cc2ccc(F)cc2)CC/C=C/C[C@@H]1CC(=O)N(CCO)Cc1ccccc1,"inconclusive [cytotoxic, single point]",
CSc1c(CC(=O)Nc2ccccc2C(F)(F)F)n(Cc2ccccc2)c2ccccc12,"inconclusive [cytotoxic, single point]",
C/C(=N/NC(=O)CNS(=O)(=O)c1ccccc1)c1ccc(Br)cc1,,inactive: -7.64%
NC(c1csc(Nc2cc(Oc3ccccc3)ncn2)n1)c1ccccc1Cl (configuration not stated),"inconclusive [cytotoxic, single point]",
CCOC(=O)c1ccc(Oc2nc(NC(C)(C)C)nc(N(C)C)n2)cc1,"inconclusive [cytotoxic, single point]",
O=[N+]([O-])c1ccc(/C=N/n2c(CO)nc3ccccc32)s1,"inconclusive [cytotoxic, single point]",
O=C(Nc1nc2ccccc2[nH]1)c1ccc(Cl)cc1,"inconclusive [cytotoxic, full curve]",
Cc1ccc2nc(/C(C#N)=C/c3ccc(O)c(O)c3)[nH]c2c1,"inconclusive [cytotoxic, single point]",
CCn1c(=O)c2cc(S(=O)(=O)NCc3ccccc3)ccc2n(CC)c1=O,"inconclusive [cytotoxic, partial curve]",
O=C(CN(c1ccc(Cl)c(C(F)(F)F)c1)S(=O)(=O)c1ccccc1)N/N=C/c1cccc2c1OCCO2,"inconclusive [cytotoxic, single point]",
Cc1ccc(C(=O)Nc2ncc(Cc3ccc(SC(F)F)cc3)s2)cc1,active: 2.59 µM,
Cc1cc(C)nc(-n2nc(C)cc2NC(=O)CN2CCc3ccccc3C2)n1,active: 1.58 µM,
COc1ccc(OC)c(-c2csc(NC(=O)Cn3[nH]c(=O)c4ccccc4c3=O)n2)c1,active: 20.6 µM,
Cc1oc(C(C)(C)C)cc1C(=O)Nc1ccc2c(c1)OCO2,,inactive: -16.8%
CCc1nc2c(OCc3ccc(F)c(F)c3)cccn2c1N(C)C(=O)c1ccncc1,,inactive: 11.1%
O=C(Nc1c(-c2ccccc2)[nH][nH]c1=O)c1ccc(Br)cc1,,inactive: 9.78%
COc1ccc(CN2C(=O)c3ccccc3C2OC)cc1 (configuration not stated),,inactive: 5.48%
O=C(Nc1nc2c(s1)CCCC2)c1ccc(S(=O)(=O)N2CCCc3ccccc32)cc1,,inactive: -23.4%
CC(=O)N1CCOc2ccc(S(=O)(=O)N3CCC(C(=O)Nc4ccc(F)cc4)CC3)cc21,,inactive: -9.01%
Cc1ccc(N2C(=O)CC(Sc3nc(C)cc(C)n3)C2=O)cc1 (configuration not stated),"inconclusive [cytotoxic, partial curve]",
